{
  "source": "PubChem BioAssay (NCI)",
  "tested_on": "NCI-H322M lung",
  "assay": "DTP human tumour cell line panel, 48 h",
  "note": "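The compound was tested at five concentrations on cells cultured in 96-well plates, with a 48-hour exposure period. GI50 is the concentration that inhibits growth by half. TGI: total growth inhibition.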",
  "data": [
    {"compound": "CC(Nc1c(C#N)cnc2ccc(-c3cnc(N)nc3)cc12)c1ccccc1", "note": "(configuration not stated)", "values": [
      {"measurement": "GI50", "value": 1.18, "unit": "µM"},
      {"measurement": "TGI", "value": 7.52, "unit": "µM"}
    ]}
  ]
}
